These results are taken from ChEMBL document CHEMBL4888484, “Replenishing the malaria drug discovery pipeline: Screening and hit evaluation of the MMV Hit Generation Library 1 (HGL1) against asexual blood stage Plasmodium falciparum ,using a nano luciferase reporter read-out” (2022).

Screen size: about 150,000 compounds; about 540 (0.36%) showed an effect of 50% or more. Some of the results follow.

The experiment relates to Plasmodium falciparum. Kind of experiment: Primary screen in NF54 nanoGlo assay, in single point, at 2uM, 72h; a lower Z score goes with more inhibition. The format is functional, Erythrocyte. The following applies: timepoint 72 hour.
Consider `COc1cc(C)ccc1C(=O)N[C@@H](C1CCOCC1)C1(CO)CCC1`, for which the “% Inhibition” value is -6% and the Z score came out at 0.79.

For `COCCN(CC(=O)Nc1c(C)n[nH]c1C)Cc1ccc(C)o1`, the “% Inhibition” value worked out at 1% and the Z score is on record as -0.09.

As for `CC(C)(C)OC(=O)N[C@H](Cc1ccc(Cl)cc1)C(=O)O`, the “% Inhibition” value is on record as -2% and the Z score stood at 0.32.

For the molecule `O=C(O)CCNCc1ccc(Br)c(F)c1`, the “% Inhibition” value is -2% and the Z score turned out to be 0.32.

With `CC(C)C1=NO[C@H](C(=O)NCCc2ccc(S(N)(=O)=O)cc2)C1`, the “% Inhibition” value is listed as -8% and the Z score came to 1.04.

Take `CC[C@@H](CNC(=O)c1cncn1C)N1CCOCC1`: the “% Inhibition” value was -4% and the Z score came out at 0.44.

Regarding `O=C(c1csc(S(=O)(=O)Nc2cccc(-c3ccno3)c2)c1)N1CCCCCC1`, the “% Inhibition” value is 7% and the Z score was -0.82.

In the case of `CCc1nccn1[C@@H](C)CC(=O)N1CCN(c2nnc(C)s2)CC1`, the “% Inhibition” value is -5% and the Z score was found to be 0.75.

`Cc1ccc(C(F)(F)F)cc1NC(=O)N1CCC[C@H]1c1nncn1C`: the “% Inhibition” value is 31% and the Z score is reported as -3.99.

Consider `Cc1c(C)[n+]([O-])c([C@@H](c2ccc(F)c(F)c2)C2C(=O)OC(C)(C)OC2=O)n1C`, for which the “% Inhibition” value is given as -2% and the Z score came out at 0.28.

Take `COc1ncccc1[C@H]1CCN(C(=O)c2c[nH]c(C(F)(F)F)c2)C1`: the “% Inhibition” value is -18% and the Z score came out at 2.08.

On to `Cc1c(Cl)cc(C(=O)N2CCN[C@@H]3CS(=O)(=O)C[C@@H]32)cc1Cl`, for which the “% Inhibition” value turned out to be 20% and the Z score is reported as -2.52.

Turning to `CCc1c(C(=O)Nc2cnc(O)cc2C)cnn1-c1ccccc1`, the “% Inhibition” value was -6% and the Z score is 0.84.

As to `CC(C)(C)c1coc(CC2CCN(Cc3nc(=O)[nH][nH]3)CC2)n1`, the “% Inhibition” value is given as 1% and the Z score is recorded as -0.15.

Consider `Cn1ncc2c(N3CCCC3)nc(C(=O)NCCCN3CCCC3)nc21`, for which the “% Inhibition” value is recorded as -11% and the Z score was determined as 1.07.

As to `CCCn1ncc(CN2CCC[C@H]2COC)c1C`, the “% Inhibition” value was 11% and the Z score was -1.51.

Take `CCN(Cc1c(C(=O)N2C[C@@H](C)O[C@@H](C)C2)nc2ccc(Cl)cn12)C1CC1`: the “% Inhibition” value is given as -7% and the Z score amounted to 1.03.

On to `CN(Cc1cn2ccccc2c1C#N)C1CCCC1`, for which the “% Inhibition” value is reported as -2% and the Z score was determined as 0.18.

On to `N#C[C@@H](C(=O)c1cc2ccccc2[nH]1)c1nc2ccccc2s1`, for which the “% Inhibition” value stood at 16% and the Z score is recorded as -2.03.

For the molecule `CCc1nn(C)c(CC)c1CC(=O)Nc1c(OC)ncnc1N(C)C`, the “% Inhibition” value is 3% and the Z score is recorded as -0.57.

For the molecule `COc1cnccc1CNC(=O)[C@]1(O)CCc2cc(Br)ccc2C1`, the “% Inhibition” value is -5% and the Z score amounted to 0.75.

For the molecule `Cc1ccc(O[C@H]2COCC[C@H]2NC(=O)c2sccc2C)cn1`, the “% Inhibition” value stood at 9% and the Z score is given as -1.24.

For `CCN(C[C@H]1CCOC1)C(=O)c1ccc(-n2cnnn2)cc1`, the “% Inhibition” value was -13% and the Z score is given as 2.08.

As to `CCC(C(=O)Nc1ccc2c(c1)CN(Cc1cccc(OC)c1)C(=O)C(C)O2)c1ccccc1` (stereo unspecified), the “% Inhibition” value is reported as -4% and the Z score worked out at 0.54.

In the case of `COc1ccc(CNC(=O)c2cc(-c3ccc(C)cc3)nc3n[nH]c(-c4ccc(OC)cc4)c23)cc1`, the “% Inhibition” value was -24% and the Z score was determined as 2.24.

With `O=C(Cc1ccc(O)cc1)NCc1ccccc1CN1CC[C@H](O)C1`, the “% Inhibition” value is on record as -8% and the Z score worked out at 0.96.

`CC(C)(Cc1ccc(Cl)cc1Cl)NC(=O)c1cccc(=O)[nH]1`: the “% Inhibition” value is recorded as -20% and the Z score came to 1.98.

Consider `COc1ccc(C(=O)N2CCC3(CC2)C[C@@H](CNS(C)(=O)=O)CCO3)cn1`, for which the “% Inhibition” value is -3% and the Z score turned out to be 0.47.

For `C[C@@H](C1CC1)N(C)Cc1nc(-c2cccs2)no1`, the “% Inhibition” value is recorded as -4% and the Z score is 0.36.

For `CN(C)C(=O)c1ccc(CNS(=O)(=O)N2CCCC2)o1`, the “% Inhibition” value was -4% and the Z score came out at 0.77.

Take `c1ccc(C2OCCC2NCc2ccsc2)cc1` (stereo unspecified): the “% Inhibition” value is -7% and the Z score is reported as 0.94.

Turning to `Cn1ccc(CNC(=O)N2CCCC3(CCCCC3)C2)n1`, the “% Inhibition” value is reported as -14% and the Z score worked out at 1.41.

Consider `Cc1cc(C2CCC2)nc(N2CCN[C@H](C(=O)O)C2)n1`, for which the “% Inhibition” value was 0% and the Z score was 0.01.

Consider `Cn1cc(N)c(C(=O)NC[C@H]2CCCO2)n1`, for which the “% Inhibition” value is reported as 32% and the Z score is -3.64.

`CCCc1nnc(NC(=O)C2=NN(c3ccccc3)[C@H](C(N)=O)C2)s1`: the “% Inhibition” value stood at 7% and the Z score is -0.86.

On to `Cn1ncc2c(NCCCO)nc(N3CCCCC3)nc21`, for which the “% Inhibition” value was -2% and the Z score is given as 0.23.

Consider `COCC(C)(C)C(=O)N1CCC[C@H](c2ccncc2)CC1`, for which the “% Inhibition” value was -7% and the Z score was determined as 1.4.

With `O=C(C[C@@]1(O)C(=O)Nc2c(Cl)cccc21)c1ccccn1`, the “% Inhibition” value is on record as 1% and the Z score is on record as -0.1.

On to `COc1ccc(CC(=O)N2CCC3(CC2)NC(=O)N(C)C3=O)cc1`, for which the “% Inhibition” value was -4% and the Z score was determined as 0.85.

Consider `CN(C)CC(=O)NC(C)(C)c1cccc(Cl)c1F`, for which the “% Inhibition” value turned out to be 2% and the Z score was -0.23.

`CCN1C(=O)c2c(C(=O)Nc3ccc(C)cc3)ncn2C[C@@]1(C)C(=O)NCc1ccc(OC)cc1`: the “% Inhibition” value is -12% and the Z score is 1.94.

`Cc1noc(-c2cn(C3CCN(C(=O)c4cccc(C#N)c4)CC3)nn2)n1`: the “% Inhibition” value is -23% and the Z score is given as 2.68.

Turning to `Cc1ccc(OCC(N)=O)c(-c2ccc(C(=O)NC[C@H]3CCN(C)C3)cc2)c1`, the “% Inhibition” value is given as -9% and the Z score was found to be 1.32.

As usually defined, the % Inhibition is the relative decrease from the control value, in per cent.
